The values that follow come from PubChem BioAssay (Tox21).

The nature of assay [1]: qHTS assay to identify small molecule antagonists of the peroxisome proliferator-activated receptor gamma (PPARg) signaling pathway - cell viability counter screen (AID 743194). Note: nearly all actives have a fitted effect of over 55% in size. As to conditions: PPARg-bla HEK293H viability, CellTiter-Glo luminescence, 17 h, co-treated with 50 nM rosiglitazone; series mostly up to 62.6 µM. In outline:
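Viability was measured as CellTiter-Glo luminescence in GeneBLAzer PPARg UAS-bla HEK293H cells. These cells had been exposed 17 h at 37 C to compounds together with rosiglitazone at 50 nM final, with the beta-lactamase readout taken in the same wells.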
In general terms: Quantitative high-throughput screening tests each substance at several concentrations.

Assay [2] in a line: qHTS assay for small molecules that induce genotoxicity in human embryonic kidney cells expressing luciferase-tagged ATAD5 - cell viability (AID 651634; calls by dose curve; note: nearly all actives have a fitted effect of over 25% in size). The note with it: HEK293T ATAD5-luc cells viability, CellTiter-Fluor, 15.5 h; series mostly up to 83.3 µM. In short, it runs like this:
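Cytotoxicity counterscreen in HEK293T cells bearing an ATAD5-luciferase reporter: live-cell protease activity measured by CellTiter-Fluor fluorescence after 15.5 hr compound exposure.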

Assay [3] is described as follows: qHTS assay to identify small molecule antagonists of the thyroid receptor (TR) signaling pathway (AID 743065). Note: nearly all actives have a fitted effect of over 55% in size. The note with it: GH3.TRE-Luc, T3-stimulated luciferase inhibition, 23.5 h; series mostly up to 32.5 µM. In outline: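 Antagonism measured as loss of luciferase signal in GH3 cells stably carrying a TRE-luciferase reporter, co-treated with compound and T3 (1 nM final) for 23.5 h at 37 C. Viability was read in the same well by CellTiter-Fluor.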

Assay [4] is described as follows: qHTS assay to identify small molecule antagonists of the estrogen receptor alpha (ER-alpha) signaling pathway using the BG1 cell line in the presence of 0.1 nM 17-beta-estradiol - cell viability counter screen (AID 1259241). Note: nearly all actives have a fitted effect of over 40% in size. As to conditions: VM7Luc4E2 (BG1) viability, CellTiter-Fluor protease, 22 h, 0.1 nM estradiol agonist added; series mostly up to 92.4 µM. In short, it runs like this:
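CellTiter-Fluor read (30 min, 37C) on ER-alpha/ERE-luc VM7Luc4E2 cells; 22 hr compound treatment; agonist 0.1 nM E2 final; same-well multiplex.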

The nature of assay [5]: A CellTox Green Cytotoxicity Assay to monitor cytotoxicity in HEK293 cells - 24 hour (AID 1224875). Note: nearly all actives have a fitted effect of over 45% in size. As to conditions: CellTox Green fluorescence; series mostly up to 76.8 µM. In outline: (§1)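 Cytotoxicity was tracked continuously in HEK293 cells by a DNA-binding dye excluded from viable cells. Compounds were transferred in DMSO 5 h after seeding; fluorescence was recorded at intervals up to 40 h.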

A short description of assay [6]: A CellTox Green Cytotoxicity Assay to monitor cytotoxicity in HEK293 cells - 16 hour (AID 1224888). Note: nearly all actives have a fitted effect of over 35% in size. The note with it: CellTox Green fluorescence; series mostly up to 76.8 µM. In short, it runs like this: as §1
A short description of assay [7]: qHTS assay to identify small molecule agonists of the sonic hedgehog signaling (Shh) pathway (AID 1259368; calls by dose curve; note: nearly all actives have a fitted effect of over 15% in size). As to conditions: NIH/3T3 Gli1-Luc reporter, luciferase, 24 h; series mostly up to 92.4 µM. In outline:
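Steps: seed 3T3 Gli1-Luc cells, incubate 4 hr at 37 C, pin-transfer compounds in DMSO alongside a positive control, incubate 24 hr, add luciferase detection reagent, wait 30 min at room temperature, read luminescence.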

Assay [8] in a line: qHTS assay to identify small molecule antagonists of the TGF-beta/Smad signaling pathway - cell viability counter screen (AID 1346824). Note: nearly all actives have a fitted effect of over 50% in size. The note with it: SBE-bla HEK293T viability, CellTiter-Glo luminescence; series mostly up to 35.3 µM. In short, it runs like this: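 Cytotoxicity counter-screen run in the same wells as the beta-lactamase Smad reporter read: CellTiter-Glo luminescence after 30 min at room temperature. HEK 293T SBE-bla cells had 5 hr compound exposure at 37 C with TGF-beta1 (0.25 ng/mL stock).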

Assay [9] can be described thus: qHTS assay to identify small molecule agonists of the constitutive androstane receptor (CAR) signaling pathway - cell viability counter screen (AID 1224836). Note: nearly all actives have a fitted effect of over 45% in size. The note with it: HepG2-CYP2B6-hCAR viability, CellTiter-Fluor, 23 h, PK11195 added to every well; series mostly up to 42.5 µM. In outline: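 Compound titrations (15 concentrations) went onto HepG2-CYP2B6-hCAR cells 4 h after seeding, alongside PK11195 at a final 0.75 uM; a 23 h, 37 C/5% CO2 incubation preceded CellTiter-Fluor viability measurement.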

The nature of assay [10]: qHTS assay to identify small molecule antagonists of the constitutive androstane receptor (CAR) signaling pathway - cell viability counter screen (AID 1224837). Note: nearly all actives have a fitted effect of over 45% in size. As to conditions: HepG2-CYP2B6-hCAR viability, CellTiter-Fluor, 23 h, co-treated with 50 nM CITCO; series mostly up to 42.5 µM. In short, it runs like this: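 Multiplexed cytotoxicity read-out for the CAR antagonist screen: double-stable HepG2-CYP2B6-hCAR cells co-treated with 50 nM CITCO (final) and compound over 15 concentrations, incubated 23 hr, then assessed by CellTiter-Fluor fluorescence.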

A short description of assay [11]: qHTS assay to identify small molecule antagonists of the glucocorticoid receptor (GR) signaling pathway - cell viability counter screen (AID 720693). Note: nearly all actives have a fitted effect of over 55% in size. As to conditions: GR-bla HeLa viability, CellTiter-Glo luminescence, 18 h, with 5 nM dexamethasone present; series mostly up to 58.5 µM.
Assay [12] can be described thus: qHTS assay to identify small molecule antagonists of the androgen receptor (AR) signaling pathway using the MDA cell line - cell viability counter screen (AID 743041; note: nearly all actives have a fitted effect of over 45% in size). As to conditions: MDA-kb2 viability, CellTiter-Fluor, 16 h, cells co-treated with R1881 androgen agonist; series mostly up to 70.3 µM. In outline: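 R1881-driven MDA-kb2 AR-luc cells, 3,000/well, were dosed with library compounds for 16 h; cell health came from CellTiter-Fluor fluorescence in the reporter wells.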

Records with an inconclusive call do not appear. Unless noted, calls come from the whole dose curve; as a rule, active = well fitted curve in the direction sought with a large enough effect in the repeat runs; inconclusive = weak or mixed curves; inactive = no such curve, though single readings can be large; an effect the other way counts as inactive or inconclusive. Some structures have more than one record in an assay (separate samples or runs), and their calls can disagree. Certain results were filed several times, with different values. They are shown here; other results are not. There may be further records. Results that share an entry are repeats (runs, samples, wells, individuals or studies). Marks in square brackets tell the records apart. Letters hold for one entry only.
Potency is the fitted concentration of half-maximal effect.

Take `c1ccc2c(c1)sc1ccccc12`: the Potency result in assay [1] was “inactive [sample A] and active: 29.8 µM [sample B]”.
Regarding `CN1C[C@H](C(=O)N[C@]2(C)O[C@@]3(O)[C@@H]4CCCN4C(=O)[C@H](Cc4ccccc4)N3C2=O)C=C2c3cccc4[nH]cc(c34)C[C@H]21`, the Potency entry is “inactive [sample A] and active: 22.6 µM [sample B]” in assay [2]; “active: 27.4 µM [sample A] and inactive [sample B]” in [3]; “active: 19.4 µM [sample A] and inactive [sample B]” in assay [4].
Take `Nc1ccccc1C(=O)OCCc1ccccc1`: the Potency entry is “inactive [sample A] and active: 21.9 µM [sample B]” in [5]; “inactive [sample A] and active: 24.5 µM [sample B]” in assay [6]; “inactive [sample A] and active: 172 nM [sample B]” in assay [7].
As to `CC(C)(C)CC(C)(C)c1ccc(O)cc1`, the Potency entry was “active: 3.44 µM [sample A] and inactive [sample B]” in assay [7]; “active: 49 µM [sample A] and inactive [sample B]” in assay [8].
As for `COP(=O)(OC)OC(Br)C(Cl)(Cl)Br` (stereo not drawn), the Potency entry in assay [1] is “active: 49 µM [sample A] and inactive [sample B]”.
`CCCCNC(=O)OCC#CI`: the Potency result in [2] was “active: 54.2 µM [sample A] and inactive [sample B]”; in assay [4], “active: 60.8 µM [sample A] and inactive [sample B]”.
Regarding `CCCCCCCCCCCC[N+](C)(C)CCOc1ccccc1`, the Potency result in assay [9] was “active: 54.5 µM [sample A] and inactive [sample B]”; in [10] it was “active: 61.1 µM [sample A] and inactive [sample B]”.
`[Cl-].[Cl-].[Hg+2]`: the Potency result in assay [11] was “inactive [sample A] and active: 24.4 µM [sample B] and inactive [sample C]”.
Turning to `O=C1c2ccccc2C(=O)N1SC(Cl)(Cl)Cl`, the Potency result in assay [5] is “active: 43 µM [sample A] and inactive [sample B]”.
As to `CCC(C)(C)c1ccc(O)c(C(C)(C)CC)c1`, the Potency entry is “inactive [sample A] and active: 54.5 µM [sample B]” in assay [12]; “active: 43.2 µM [sample A] and inactive [sample B]” in assay [6].
